Assay results reported in PubChem BioAssay AID588579 (National Center for Advancing Translational Sciences (NCATS), 2011).
“And” between values parts separate entries of the source, which are not always exact repeats. Equal values may be shown once. Out of some 400,000 compounds screened, about 2,200 (0.55%) were called active. Another 1% or so got no clear call; they are omitted. The call rests on the fitted dose curve; in most records, active means well fitted inhibition curve with a large enough effect; inconclusive means small, poorly fitted or top-dose-only effect, or another doubt; inactive means no such curve, though single readings can be large or run the other way. Only a part is listed here, and it is no random draw. The source holds several records for some structures; these can differ, active in one and inactive in another. Starred links: 1 amine or outer side, 2 acyl side, 3 side chain; linkers in the order of their positions; H or OH if unused. Positions of bridges follow the written chain, without caps; N, C: chain ends. Non-standard residues stand in square brackets, D forms with d. Residues, ends and D or L forms follow the SMILES beside them. ξ: configuration not given here. hSer(Ph(2-I,4-NO2,6-CO)) = O=C([C@H](CCOc1c(I)cc([N+](=O)[O-])cc1C(=O)[*:3])N[*:1])[*:2]; ξD = NC(CC(=O)O)C(=O)O

What follows are compounds tested against DNA polymerase kappa (Homo sapiens) (UniProt Q9UBT6) (assay: qHTS for Inhibitors of Polymerase Kappa). Conditions: purified Pol kappa, fluorescent DNA synthesis assay, 10 min; series mostly up to 107 µM; activity, negative = inhibition: at the top concentration.
Sequence of UniProt Q9UBT6 (Q9UBT6 whole entry, looked up): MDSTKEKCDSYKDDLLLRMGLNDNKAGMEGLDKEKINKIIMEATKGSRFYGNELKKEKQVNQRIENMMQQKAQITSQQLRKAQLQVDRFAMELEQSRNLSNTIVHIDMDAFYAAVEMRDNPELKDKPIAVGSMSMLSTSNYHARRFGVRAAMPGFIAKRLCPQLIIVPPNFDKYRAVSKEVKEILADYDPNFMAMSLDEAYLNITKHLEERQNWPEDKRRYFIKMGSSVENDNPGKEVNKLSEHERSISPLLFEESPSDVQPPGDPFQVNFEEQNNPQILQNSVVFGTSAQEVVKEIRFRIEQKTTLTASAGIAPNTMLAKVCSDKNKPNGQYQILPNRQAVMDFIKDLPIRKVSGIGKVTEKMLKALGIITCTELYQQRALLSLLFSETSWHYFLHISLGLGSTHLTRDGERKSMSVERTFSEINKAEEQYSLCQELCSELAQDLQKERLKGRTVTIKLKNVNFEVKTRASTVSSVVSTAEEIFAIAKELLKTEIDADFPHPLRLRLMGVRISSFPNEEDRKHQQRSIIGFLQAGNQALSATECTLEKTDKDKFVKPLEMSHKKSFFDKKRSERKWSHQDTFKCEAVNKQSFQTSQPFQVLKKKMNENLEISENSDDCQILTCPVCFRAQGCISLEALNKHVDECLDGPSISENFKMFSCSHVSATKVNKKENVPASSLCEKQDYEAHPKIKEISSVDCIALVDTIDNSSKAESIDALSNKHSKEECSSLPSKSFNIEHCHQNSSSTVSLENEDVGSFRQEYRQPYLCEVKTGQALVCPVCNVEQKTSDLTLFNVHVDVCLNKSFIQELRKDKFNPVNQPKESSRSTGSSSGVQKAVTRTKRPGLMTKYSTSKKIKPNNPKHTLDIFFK
Summary of the method: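 Enzyme at 10 nM met test compounds for 15 min at room temperature. Substrate addition (50 nM final) began the reaction, which was monitored by fluorescence at 0 and 10 min.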
On the % scale 0 is the no-effect control and ±100 the full control effect; potency means the concentration at half of the fitted maximal effect.

activity, negative = inhibition, inactive:
Cc1ccc(/C(=C/CN2CCCC2)c2ccccn2)cc1 -3.64% [at 12 µM] and -9.21% [at 19.4 µM]
CC(=C/c1ccco1)/C=N/NC(=O)c1nnn(-c2nonc2N)c1CN(C)C -1.14%
CCOC(=O)C1(CC)Oc2ccccc2C(c2ccc(OC)cc2)=C1C(=O)OC (stereo not drawn) 3%
COc1ccc(-c2nc(NC(=O)C3CC(=O)N(c4ccc5c(c4)OCCO5)C3)sc2C)cc1 (stereo not drawn) -11.1%
COC(=O)C1=C[C@@H](C(=O)OC)[C@@H]2C3=C(C(=O)[C@]2(C)NC(=O)c2ccccc2)[C@H](C)[C@@H]2C(=O)NC(=O)[C@@H]2[C@@H]3C1 0%
CC(=O)OCC(CO)OC(C)=O (stereo not drawn) (tested in a mixture with another compound) 15.2% [at 60.1 µM]
C/C=C\C[C@H](C)[C@H](O)[C@H]1C(=O)N[C@@H](CC)C(=O)N(C)CC(=O)N(C)[C@@H](CC(C)C)C(=O)N[C@@H](C(C)C)C(=O)N(C)[C@@H](CC(C)C)C(=O)N[C@@H](C)C(=O)N[C@@H](C)C(=O)N(C)[C@@H](CC(C)C)C(=O)N(C)[C@@H](CC(C)C)C(=O)N(C)[C@@H](C(C)C)C(=O)N1C -12.2% [at 12 µM]
Cc1cc(O)c(C(C)C)cc1Cl -2.53% [at 60.1 µM]
CC(C)[C@@H]1C(=O)N(S(C)(=O)=O)[C@H]2CCN(C(=O)/C=C\CN3CCCCC3)[C@@H]12 -5.35% [at 19.4 µM]
O=C(O)c1cc(O)c2c(c1)[C@@H]([C@H]1c3cc(C(=O)O)cc(O)c3C(=O)c3c(O[C@@H]4O[C@H](CO)[C@@H](O)[C@H](O)[C@H]4O)cccc31)c1cccc(OC3O[C@H](CO)[C@@H](O)[C@H](O)[C@H]3O)c1C2=O (stereo partly drawn) -97%
CC[C@H](C)[C@@H]1O[C@]2(CC[C@@H]1C)C[C@H]1C[C@H](CC=C(C)[C@@H](O[C@@H]3C[C@H](OC)[C@H](O[C@@H]4C[C@H](OC)[C@H](O)[C@H](C)O4)[C@H](C)O3)[C@@H](C)C=CC=C3CO[C@@H]4[C@@H](O)C(C)=C[C@@H](C(=O)O1)[C@]34O)O2 -10.2% [at 12 µM]
Cc1cc(C)cc(NC(=O)NCC2CCN(Cc3cc(C)ccc3C)CC2)c1 0%
CCCCCCCCCCCC 17.9% [at 60.1 µM]
O=C(Nc1cccc(S(=O)(=O)N2CCOCC2)c1)C1CC(=O)N(c2ccc3c(c2)OCCO3)C1 (stereo not drawn) 104%
COc1cccc(NS(=O)(=O)c2ccc3[nH]cc(C(=O)N(C)Cc4ccco4)c(=O)c3c2)c1 -26.9%
OCC1=C[C@@H](O)[C@@H]2C=CO[C@@H](OC3O[C@H](CO)[C@@H](O)[C@H](O)[C@H]3O)[C@H]12 (stereo partly drawn) 18% [at 60.1 µM]
Cc1ccc(N2CCN(C(=O)c3nn(C)c4c3CS(=O)(=O)c3ccccc3-4)CC2)c(C)c1 -4.85%
CCNC(=O)[C@H]1O[C@H](n2cnc3c(N)nc(NCCc4ccc(CCC(=O)O)cc4)nc32)[C@@H](O)[C@@H]1O -11.7% [at 19.4 µM]
C[C@@H](O)[C@@H]1NC(=O)[C@H](CCCCN)NC(=O)[C@H](Cc2c[nH]c3ccccc23)NC(=O)[C@H](Cc2ccccc2)NC(=O)[C@H](Cc2ccccc2)NC(=O)[C@H](CC(N)=O)NC(=O)[C@H](CCCCN)NC(=O)[C@@H](NC(=O)[C@@H]2CCCN2)CSSC[C@@H](C(=O)N[C@@H](CCCCN)C(=O)O)NC(=O)[C@H](CO)NC(=O)[C@H](CO)NC(=O)[C@H](Cc2ccccc2)NC1=O (H-PCKNFFWKTFSSCK-OH; disulfide 2-13) 12.8% [at 60.1 µM]
COc1cccc(NC(=O)Cn2nnc(C(=O)NCc3cccs3)c2N)c1 -7.17% [at 60.1 µM]
CN(CC(=O)O)c1ccc(/C=C2\C=Cc3ccccc32)cc1 -8.83%
CCC(=O)OCC(=O)[C@@]1(OC(=O)CC)[C@H](C)C[C@@H]2[C@@H]3[C@H]([C@@H](O)C[C@@]21C)[C@]1(C)C=CC(=O)C=C1C[C@@H]3Cl -1.74% [at 12 µM]
Cc1nc2ccc3nc(NC(=O)C4COc5ccccc5O4)sc3c2s1 (stereo not drawn) 5.84%
C[C@@]12C=Cc3occc3[C@H]1CC[C@@]13C[C@@H](CC[C@H]12)[C@@](O)(CO)C3 -6.33% [at 60.1 µM]
COC(=O)C[C@H]1c2cc(C(F)(F)F)ccc2S(=O)(=O)N1C1CCCC1 2.12%
NC(Cc1cc(I)c(Oc2ccc(O)c(I)c2)c(I)c1)C(=O)O (stereo not drawn) -5.89% [at 60.1 µM]
O=C(C[C@H]1C/C=C\CC[C@@H](Cc2ccc(F)cc2)C(=O)O[C@@H](c2ccccc2)CNC1=O)N[C@H](CO)Cc1ccccc1 -4.14%
CCCCCCCCCCCCCCCCCCc1ccc(C(=O)/C=C/C(=O)O)cc1 -1.32% [at 19.4 µM]
COc1ccc(-c2ccccc2[C@H]2[C@@H]3C=CC[C@@H](C)[C@@H]3C(=O)N2Cc2ccccc2)cc1 -20%
COc1ccc(N=C2NC(=O)/C(=C/c3ccco3)S2)cc1 -20.2%
CC1CCC(C(C)C)C(P(=O)(c2ccccc2)c2ccccc2)C1 (stereo not drawn) 16.9% [at 60.1 µM]
CC1=C/C(=C(\c2cc(C)c(O)c(Br)c2)c2ccccc2S(=O)(=O)O)C=C(Br)C1=O -40.9%
O=c1oc2c(O)c(O)cc3c(=O)oc4c(O)c(O)cc1c4c23 -18.1%
O=C(O)[C@@H]1C[C@H](C(=O)O)N1 -26.4% [at 60.1 µM]
Cc1ccc2c(=O)cc(C(=O)Nc3c(C)n(C)n(-c4ccccc4)c3=O)oc2c1C 27.5%

Potency, active:
Cc1c(C(=O)O)c(O)cc2c1C(=O)c1c(O)c([C@H]3O[C@H](CO)[C@@H](O)[C@H](O)[C@H]3O)c(O)c(O)c1C2=O 20 µM and 8.44 µM and 3.16 µM
COc1cc(/C=N/NC(=O)c2ccccc2O)ccc1OCC(=O)Nc1ccccc1 50.1 µM
COC(=O)C1=COC(OC2OC(CO)C(O)C(O)C2O)C2C1C=CC2(O)CO (stereo not drawn) 35.5 µM
COc1cc(-c2cc(=O)c3c(O)c(OC)c(OC)cc3o2)cc(OC)c1O 79.4 µM
O=C(c1ccco1)N(CCC(c1ccccc1)c1ccco1)Cc1ccccc1 (stereo not drawn) 79.4 µM
C[C@@H]1NC(=O)[C@H](CC(N)=O)NC(=O)c2cc([N+](=O)[O-])cc(I)c2OCC[C@@H](C(=O)NC(CC(=O)O)C(N)=O)NC1=O (stereo partly drawn) (NA[hSer(Ph(2-I,4-NO2,6-CO))][ξD]-NH2; lactam N-3) 79.4 µM
N=C1/C(=C\c2ccc(-c3ccc(C(=O)O)cc3)o2)C(=O)N=C2SC=C(c3ccccc3)N12 50.1 µM
C=C(C)C(=O)Oc1ccc(N=Nc2ccc(C)cc2)ccc1=O 50.1 µM
O=C(/C=C/c1ccco1)NC(=S)Nc1ccc(C(=O)O)cc1 25.1 µM
O=c1cc(-c2ccc(O)cc2)oc2c(O)c(O)c(O)c(O)c12 10 µM
CC(=O)Oc1cc(-c2coc3cc(OC(C)=O)c(OC(C)=O)c(OC(C)=O)c3c2=O)cc(OC(C)=O)c1OC(C)=O 0.355 µM
O=[N+]([O-])c1ccc(Sc2cccc[n+]2[O-])c2nonc12 31.6 µM
COc1c(Br)cc(/C=N/n2c(-c3ccccc3)n[nH]c2=S)c(O)c1Br 2 µM
O=C(Cc1nnc(NC(=O)c2ccccc2)s1)N/N=C\c1ccc(O)c(O)c1 3.16 µM
O=C1CCCC2=C1C(c1ccco1)Nc1ccc3ccccc3c12 (stereo not drawn) 28.2 µM
CCN(CC)CCCNc1nc2ccccc2c2[nH]c3ccc(OC)cc3c12 17.8 µM
CC(=O)Nc1ccc(NC(=S)NC(=O)/C=C/c2ccco2)cc1 44.7 µM
COc1ccccc1CNC(=O)C(=O)NCCC1CCCCN1S(=O)(=O)c1cccs1 (stereo not drawn) 89.1 µM
COc1ccc(-c2nc3c(c(SCC(=O)Nc4cccc(O)c4)n2)Cc2c(CO)cnc(C)c2O3)cc1 79.4 µM
CCOC(=O)N1CCC(NC(=O)c2cccc3c2C(=O)N(c2ccc(OC)cc2)C3)CC1 50.1 µM
COc1ccc(NC(=O)CN(C)C(=O)c2cc3c(s2)CCC3)cc1 10 µM
CC(/C=N/NC(=O)c1nnn(-c2nonc2N)c1CN(C)C)=C\c1ccco1 79.4 µM
O=C(N/N=C/c1ccc(F)cc1)c1cc(-c2ccco2)nc2ccccc12 14.1 µM
Cc1ccc(NC(=O)CSc2nnc(-c3ccco3)c(-c3ccco3)n2)cc1 39.8 µM
Cc1cc(C(=O)NCc2ccc(C(=O)O)o2)c(C)o1 31.6 µM

Potency, inactive:
COCc1nc2c([nH]1)c(=O)n(C)c(=O)n2CC(C)C
CCCCCC(O)c1cccc(OCc2ccc3ccccc3n2)c1 (stereo not drawn)
C/C=C/CC(C)C(O)C1C(=O)NC(CC)C(=O)N(C)CC(=O)N(C)C(CC(C)C)C(=O)NC(C(C)C)C(=O)N(C)C(CC(C)C)C(=O)NC(C)C(=O)NC(C)C(=O)N(C)C(CC(C)C)C(=O)N(C)C(CC(C)C)C(=O)N(C)C(C(C)C)C(=O)N1C (stereo not drawn)
N#C/C(=C\c1ccc(O)c(O)c1)C(=O)NCCc1ccccc1
C1CCc2nnnn2CC1
Cc1cc(O)cc(C)c1Cl
CC1CCN=C(N)S1 (stereo not drawn)
CN1CCN(CCC=C2c3ccccc3Sc3ccc(S(=O)(=O)N(C)C)cc32)CC1
O=C(O)/C=C1\CCCc2ccccc2C1O (stereo not drawn)
COc1ccc2cc([C@H](C)C(=O)O)ccc2c1
O=C(/C=C/c1ccc(O)cc1)c1ccc(O)cc1O
NS(=O)(=O)c1cc2c(cc1Cl)NC(C1CC3C=CC1C3)NS2(=O)=O (stereo not drawn)
COC(=O)C1=CO[C@@H](C)[C@H]2CN3CCc4c([nH]c5ccccc45)[C@@H]3C[C@H]12
